The values below come from PubChem BioAssay AID1346428 (National Center for Advancing Translational Sciences (NCATS), 2018).

About 1,200 (2.5%) of roughly 48,000 compounds were called active. Another 2% or so got no clear call; they are omitted.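 Rule for the calls: active = activation of at least 60% and not above a set upper limit (about 1 call in 100 departs from these limits); inconclusive = activation of 40% to 60%, or above that upper limit; inactive = activation under 40%.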 This is one part of the list.

The target in this test is Probable G-protein coupled receptor 32 (Homo sapiens) (UniProt O75388). The test can be described thus: qHTS for Agonists of Human Resolvin D1 Receptor DRV1. Note: 0% is about no effect. The conditions noted are these: CHO-K1 GPR32 beta-arrestin PathHunter luminescence, 90 min; at 76.9 µM; active compounds read high; zero percent set by DMSO-only wells. Put shortly: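 CHO-K1 cells stably expressing ProLink-tagged GPR32 and Enzyme Activator-tagged beta-arrestin were seeded at 2,500 cells/well overnight, exposed to compounds for 90 min at 37 °C, then read by beta-Gal complementation chemiluminescence after 1 h detection reagent.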
Sequence of UniProt O75388 (O75388 whole entry, looked up): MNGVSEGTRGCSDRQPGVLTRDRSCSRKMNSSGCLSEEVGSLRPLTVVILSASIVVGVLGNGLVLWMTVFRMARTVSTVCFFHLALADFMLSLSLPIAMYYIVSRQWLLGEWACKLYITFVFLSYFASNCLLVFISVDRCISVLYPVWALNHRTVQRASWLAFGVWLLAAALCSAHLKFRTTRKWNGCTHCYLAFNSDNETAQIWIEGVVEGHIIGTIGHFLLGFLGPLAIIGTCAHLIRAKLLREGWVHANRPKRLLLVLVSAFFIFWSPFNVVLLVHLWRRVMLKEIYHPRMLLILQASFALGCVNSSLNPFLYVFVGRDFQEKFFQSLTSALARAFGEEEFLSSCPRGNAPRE
(In qHTS, concentration-response curves come from the screen itself.)
With `CCn1cc(C(=O)N2CCN(c3ccc(OC)cc3)CC2)c2cc(OC)c(OC)cc2c1=O`, the activation is inactive: -7.75%.
In the case of `Cc1ccccc1Cn1c2ccccc2c2cnn(CC(=O)N3CCC(C)CC3)c(=O)c21` it was inactive: -5.9%; in that of `Cc1ccc(NC(=O)Cn2cc(C(=O)c3ccco3)c3ccccc32)cc1`, inactive: -14.2%; in that of `CCOc1ccc(-c2cccc(NS(=O)(=O)c3ccccc3C(F)(F)F)c2)nn1`, inactive: 5.17%.
As for `CCc1ccc(NC(=O)N2CCC(N3CCN(Cc4ccc(C)cc4)C(=O)C3=O)CC2)cc1`, the figure is inactive: -14.9%; as for `COc1ccc(-c2cc3nccc(-c4cc(Cl)c(C)cc4O)n3n2)cc1`, inactive: 15.1%; as for `CCn1c(C(=O)N2CCCC(C(=O)N3CCN(c4ccccc4)CC3)C2)cc2sccc21` (stereo not drawn), inactive: 34.9%.
With `Cc1nn(CC(=O)NCCc2ccccc2)c(=O)c2c1sc1ccccc12`, the activation was inactive: -9.37%.
As for `CCOc1ccccc1NC(=O)CSC1=Nc2ccccc2C2=NC(CC(=O)NCc3ccc4c(c3)OCO4)C(=O)N12` (stereo not drawn), the figure is inactive: -16.9%.
In the case of `O=c1cc(-c2ccccc2)n2c(SCc3ccc(Br)cc3)nnc2[nH]1` it was inactive: -0.0537%; in that of `COc1ccc(-n2ccnc(NCCc3ccc(Cl)cc3)c2=O)cc1OC`, active: 105%; in that of `COc1ccccc1CN1C(=O)C(=O)c2cccc(C)c21`, inactive: -23.6%.
As to `Cc1ccc(S(=O)(=O)NCC(c2ccc(N(C)C)cc2)N2CCc3ccccc32)cc1` (stereo not drawn), the activation is inactive: -35.8%.
In the case of `CCCCSCCCNC(=O)c1c[nH]c2ccc(S(=O)(=O)Nc3cccc(OC)c3)cc2c1=O` it was inactive: -9.28%.
As for `Cc1cc2nc(N(Cc3cccnc3)C(=O)c3ccc(Cl)s3)sc2cc1C`, the figure is inactive: -6.53%; as for `CCC(C)NC(=O)Cn1c(=O)n(-c2ccc(C)c(C)c2)c(=O)c2c(C)c(C(=O)N(CC)CC)sc21` (stereo not drawn), inactive: -0.931%; as for `CCN(Cc1ccccc1)Cc1c(O)ccc2oc(C)c(C(=O)Nc3ccccc3C)c12`, inactive: -13.6%.
Consider `O=C(Cc1ccccc1)Nc1nnc2n1CCS2`, for which the activation is inactive: -3.56%.
As for `CC(=O)N1c2ccc(S(=O)(=O)N(C)CC(=O)N(Cc3ccccc3)C(C)C)cc2CC1C` (stereo not drawn), the figure is inactive: 0.0281%; as for `CC(C)(C)c1ccc(C(=O)N2CCN(CCc3ccccn3)CC2)cc1`, inactive: 6.12%; as for `CCOc1ccc(C(=O)c2cn(CC(=O)Nc3ccc(F)c(F)c3)c3cc4c(cc3c2=O)OCCO4)cc1`, inactive: 18.6%.
In the case of `COc1cccc(NC(=O)CCc2nc(-c3cccs3)no2)c1` it was inactive: 15.5%.
As for `CSc1ncc(Cl)c(C(=O)Nc2c(C(=O)c3ccc(C)c(F)c3)oc3ccccc23)n1`, the figure is inactive: 16.8%.
